tested on: NaV2 sodium channel; conditions: CHO NaV2; 20 Hz stimulus; response at 1 second vs 3 seconds

How did the “dependence of channel block on the time window (use-dependence, shift of dose-response curves)” value turn out when `CCCCN1CCCCC1C(=O)Nc1c(C)cccc1C` (stereo not drawn) [Bupivacaine] was run?
The value was “smaller amount of shift in the dose-response curves”.

`CCCCNc1ccc(C(=O)OCCN(C)C)cc1` [Tetracaine, tetracaine] was tested. Which “dependence of channel block on the time window (use-dependence, shift of dose-response curves)” value did it give?
Its value is “an order of magnitude stronger at 3 seconds than at 1 second”.

With `CCN(CC)CC(=O)Nc1c(C)cccc1C` [Lidocaine] as the molecule, how does the “dependence of channel block on the time window (use-dependence, shift of dose-response curves)” value read?
The value was “smaller amount of shift in the dose-response curves”.

Source: patent US8071318B2, “High throughput method and system for screening candidate compounds for activity against target ion channels” (Vertex Pharmaceuticals (San Diego) LLC, priority 2000, dated 2011)
